Data: the supplement of paper PMC3334620
The full ranking holds about 33,000 sequences; the median of “E-score (-0.5 to 0.5)” is about -0.016, and the highest 2% start at about 0.32. Some of the results follow.

target: T1, Stp1 (UniProt B3LFK1); experiment: PBM E-score (8-mer binding enrichment) (E-score (-0.5 to 0.5)); higher = stronger / more preferred TF binding; most listed sequences are background and not binding sites; conditions: protein concentration: 200 nM; construct: GST-full length
T1 sequence: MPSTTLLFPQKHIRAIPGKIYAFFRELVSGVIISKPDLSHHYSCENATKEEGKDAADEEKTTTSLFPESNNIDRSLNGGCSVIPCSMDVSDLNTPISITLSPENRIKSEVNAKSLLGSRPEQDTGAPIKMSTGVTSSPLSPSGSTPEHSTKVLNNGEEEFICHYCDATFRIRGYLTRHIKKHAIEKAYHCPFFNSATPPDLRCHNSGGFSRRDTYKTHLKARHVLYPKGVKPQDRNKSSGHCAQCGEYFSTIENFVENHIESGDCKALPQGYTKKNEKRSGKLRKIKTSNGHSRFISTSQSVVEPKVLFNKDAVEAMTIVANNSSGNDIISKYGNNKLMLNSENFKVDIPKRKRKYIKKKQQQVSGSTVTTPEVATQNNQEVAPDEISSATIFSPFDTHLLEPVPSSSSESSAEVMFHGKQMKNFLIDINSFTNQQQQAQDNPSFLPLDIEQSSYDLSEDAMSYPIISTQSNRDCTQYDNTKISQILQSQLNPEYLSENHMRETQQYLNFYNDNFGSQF
Outline: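 For each ungapped eight-base word taken together with its reverse complement, the Universal PBM Analysis Suite assigned an E-score. Binding data came from GST-tagged yeast transcription factors, applied at about 100-200 nM, on universal all-10-mer Agilent arrays made double-stranded by primer extension. Fluorescent anti-GST marked bound protein, and scans were normalised with masliner.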

Sequence | PBM E-score
ACTCCATG | -0.0264
CACGCTAG | -0.309
GTAATCCA | 0.0213
AACGGAAG | 0.0111
CCGTTCAA | 0.255
AGAATCAA | 0.117
CGGCGTGC | 0.316
AACTCATC | -0.0197
GGGCTAAC | -0.22
GTTGCCCA | 0.0403
AGCTTGTG | -0.167
CTTGGCCC | -0.298
GGATCCCC | -0.178
CATCTGCA | 0.126
GTGCTACA | -0.0512
CGCGAATC | 0.215
ACCAAGAA | 0.152
ATACTCCC | -0.0851
AAGTAGTA | -0.0615
ACGTGGAA | 0.0021
AGGGAGAC | -0.133
CCTCTGGC | -0.192
TTCGAAAA | 0.287
ATTTAGCA | 0.0362
TAGCAGAA | 0.123

Sequence | PBM E-score
AGGATGAG | 0.0154
CCTTTGGA | -0.0836
ATTACTTC | -0.0579
ATGTCCCC | -0.348
CACTCACC | -0.107
AAGGCTCT | 0.21
AGTCCCCC | -0.455
AGAAGAAT | -0.163
AGTCTCGG | -0.262
ATGGCATA | 0.226
AGCCCATG | -0.0373
AGGATAGA | 0.0673
AGATCCCC | -0.256
CCTAATCA | -0.0333
CTTATATC | 0.199
CTCTTAAA | 0.105
CGCCACTC | 0.263
CAGATCAG | -0.0397
ATACTGCA | 0.0487
ACTGGATC | -0.0855
CTATCCAC | -0.0379
ACACACGA | 0.135
AGCCCTAA | 0.034
CGACTATA | -0.175
GAGGTGCA | 0.0251

Sequence | PBM E-score
AAACGTGG | -0.0726
AGAGAAAT | 0.178
CGTTCCTA | 0.0272
AAATGAAT | -0.0333
AGATAATA | 0.115
AAAGCGCC | 0.302
ATCTCACC | 0.0145
ACCTTGAC | -0.244
ACATCCTC | -0.16
CTCTTGCA | -0.148
TAATGGCA | 0.18
TTGGCAAA | 0.264
ACCATGAT | -0.266
CTAGTCAA | -0.199
CGGCCAAG | 0.098
GGGTAGAC | -0.269
CCGAATCC | 0.0112
CCGATGAG | -0.0793
CCATTGCC | 0.0367
CTGTATTC | 0.0866
GCTCAAGA | -0.152
GGTGTGTA | -0.214
CTCCGCGA | -0.0489
AGTCTCCA | -0.275
CGCTCGCC | 0.239

Sequence | PBM E-score
ACAGTGCT | -0.0113
ATCTCAAT | 0.0218
CAGGACGG | -0.0616
ACGCTAAT | -0.176
TAACCTTA | -0.0457
CGTGTTCA | 0.0832
GGTGGTGA | -0.125
AATATACA | 0.175
ACGAACTC | 0.117
ATATGTCG | 0.118
ATTTAAAC | 0.0433
AGTCACTG | -0.0867
CTCCTTAA | -0.0225
GGCTGGAC | -0.0567
ACATAAGG | 0.0917
CCTCTGGA | -0.21
GCCTGTCA | -0.0812
ATCGGAAT | 0.135
CACGCGAC | -0.12
AGGAACCG | -0.0597
CGCGCATA | 0.133
GGACGGTA | -0.221
AGGACGAT | -0.0289
ATCCGACG | 0.0697
AGAGCGCT | -0.218

Sequence | PBM E-score
GGTTACTA | -0.125
AACACATC | -0.00391
CACATAAC | 0.0275
AGTTGAAG | -0.212
CCGCAGCC | 0.148
AAGCAACC | -0.0666
ACACCCTA | -0.155
AACTGACG | -0.0413
CCGTTCGC | 0.226
AAGAGATT | -0.00321
TAAGGCTA | 0.0342
AAGCAATG | 0.115
GCGACGAA | 0.0964
ACGTAAAA | 0.219
CCTTTAAA | 0.0143
GGAGATAA | -0.0256
ATAGTGCC | 0.311
CCCTTGTC | -0.0524
CCGCACGC | 0.323
ACCTTACA | -0.0495
ACGCCTGC | -0.0286
GCATCCGC | -0.0715
ACTTTAAG | -0.012
CCTTTTGC | 0.214
ACACGCAG | -0.159

Sequence | PBM E-score
GGGATAAA | 0.122
GCAACTGA | 0.15
GTCGGAAC | -0.16
GCTCAGAA | 0.00512
GGTCAAAC | 0.121
CCCTCGCA | -0.177
AGGATCCC | -0.132
GCTCCTAA | -0.0873
AATTCCAA | 0.0947
CGGCGTAA | 0.39
CTCATACA | 0.102
CTTCCAGA | -0.0274
TATTAGGA | 0.0514
CCTCACTA | -0.0282
AAACAGAA | 0.0538
ATCGGCCC | -0.123
CGACAGCA | -0.0693
ATGGGTCG | -0.286
GACATGCA | -0.127
GTCGCATA | -0.0363
GCATGTGA | -0.059
GATCTCGA | -0.0356
ACTGGCAG | 0.0412
AGATACAG | 0.0795
ACCTGAGT | -0.234

Sequence | PBM E-score
AGGCCTTC | -0.188
CGACCTTC | -0.164
ATTTCATC | 0.172
GCGCGGGA | 0.163
GCGCCACC | 0.24
ATTAAGTG | 0.131
GGTTCAAA | 0.24
CGCACCAG | 0.281
AGAACCAG | -0.128
CGTATCCC | -0.128
CAGGAATC | 0.0334
TATAATGA | 0.142
GAAAAAGA | 0.0921
GCAAAAAA | 0.198
ATTCCGGA | 0.00668
GTTTTCTA | 0.139
ATAATCCG | -0.0502
AGTACTTC | 0.00091
GCCCTGTA | 0.118
ATCTGTGG | -0.118
GCAGCAGA | -0.0587
GCGTTACA | 0.156
